In PubChem BioAssay AID1159614 (National Center for Advancing Translational Sciences (NCATS), 2016):
Hit rate of the full screen: of about 45,000 compounds, about 65 (0.1%) were called active. The call rests on the fitted dose curve; in most records, active means well fitted activation curve with a large enough effect; inconclusive means small, poorly fitted or top-dose-only effect; inactive means no such curve, though single readings can be large or run the other way. The list shows a part of the results.

These compounds were tested against Galactocerebrosidase (Homo sapiens) (UniProt P54803) (assay: A Novel Cell-Based Assay to Identify Small Molecules for B -Galactocerebrosidase). Settings: 145M-Twi-hGALC-G270D cells, HMU-beta-Gal fluorescence, 48 h; series mostly up to 57.5 µM; activation: at the top concentration.
In short: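 qHTS, 1536-well; 145M-Twi-hGALC-G270D cells (WT line also made) in DMEM/F12 + 10% FBS; compound incubation on live cells; HMU-β-gal 0.1 mM final, pH 5.2, NaTC; carbonate stop; fluorescence increase = enhanced residual activity.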
Further: 0% is about no effect; nearly all actives have a fitted effect of over 65% in size.

Sequence of UniProt P54803 (P54803 whole entry, looked up): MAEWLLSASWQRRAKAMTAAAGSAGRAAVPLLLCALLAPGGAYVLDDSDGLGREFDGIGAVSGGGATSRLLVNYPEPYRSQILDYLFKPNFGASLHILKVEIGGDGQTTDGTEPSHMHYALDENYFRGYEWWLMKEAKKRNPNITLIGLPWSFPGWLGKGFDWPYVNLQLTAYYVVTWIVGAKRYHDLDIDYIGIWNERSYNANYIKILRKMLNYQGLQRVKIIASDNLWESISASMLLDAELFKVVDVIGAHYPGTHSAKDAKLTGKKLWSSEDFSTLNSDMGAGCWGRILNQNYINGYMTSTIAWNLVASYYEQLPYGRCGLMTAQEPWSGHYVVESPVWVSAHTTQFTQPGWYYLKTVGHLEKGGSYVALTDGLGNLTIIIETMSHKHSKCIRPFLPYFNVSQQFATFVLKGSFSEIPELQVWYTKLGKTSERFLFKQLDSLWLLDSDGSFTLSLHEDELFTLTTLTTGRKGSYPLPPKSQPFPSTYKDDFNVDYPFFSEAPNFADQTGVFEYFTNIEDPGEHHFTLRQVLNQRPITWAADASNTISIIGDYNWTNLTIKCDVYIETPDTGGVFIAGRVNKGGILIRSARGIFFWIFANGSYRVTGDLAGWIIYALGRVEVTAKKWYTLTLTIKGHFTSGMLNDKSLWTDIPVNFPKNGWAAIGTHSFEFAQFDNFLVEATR

activation, inactive:
Cc1cc(C)cc(Nc2ncnc3onc(-c4ccc(F)cc4)c23)c1 -9.12%, CCS(=O)(=O)c1nc(S(=O)(=O)c2ccc(C)cc2)c(NC(C)c2ccccc2)s1 (stereo not given) -13.9%, COc1ccc(-c2nnc(Nc3ccc(OC)c(C(N)=O)c3)c3ccccc23)cc1 -19.8%, CCOc1ccccc1NC(=O)C(=O)c1cc(C)n(-c2ccc(F)cc2)c1C -15.9%, CCOc1ccc(-n2cc(-c3ccccc3)c3c(N4CCC(C)CC4)ncnc32)cc1 -1.02%, O=C(CCSCc1cccc(F)c1)NCc1ccccc1 -14.7%, COc1ccc(Cl)cc1NC(=O)Cn1c(=O)n(CCCC(=O)NCCc2ccc(OC)c(OC)c2)c(=O)c2ccccc21 -5.67%, O=C(c1ccc2c(c1)CCCC2)N1CCN(c2nc3ccc(F)cc3s2)CC1 -13.6%, CCCOc1ccc(CNC(=O)Cn2cc3c(n2)-c2c(oc(C(=O)N4CCOCC4)c2C)CC3)cc1 -9.27%, CCc1ccc(S(=O)(=O)NCc2nc3cccnc3n2Cc2ccccc2Cl)cc1 -8.1%, COc1cccc(-n2c(SCC(=O)N3CCCc4ccccc43)nc3c([nH]c4ccccc43)c2=O)c1 -12%, COc1cc(NC(=O)NC(C)c2c(-n3cccc3)sc3c2CCN(C)C3)cc(OC)c1 (stereo not given) 3.66%, COc1ccc(S(=O)(=O)c2cc3cc(OC)ccc3oc2=O)cc1 -4.88%, Cc1ccc(NC(=O)Cn2c(=O)n(CCCS(=O)(=O)C3CCCCC3)c(=O)c3ccccc32)cc1F -5.12%, CC(NC(=O)c1ccc(Cn2c(=O)c3cccn3c3cccnc32)cc1)c1ccccc1 (stereo not given) -11.9%, CCN1CCN(c2c(S(=O)(=O)c3ccc(Cl)cc3)cnc3ccccc23)CC1 -7.28%, COc1ccc(C(=O)c2oc3ccccc3c2NC(=O)COc2ccc(C)cc2)cc1 -11.9%, Cc1ccc(C)c(Nc2nc3c(S(=O)(=O)c4ccc(Br)cc4)nnn3c3ccsc23)c1 -7.17%, CCc1ccccc1NC(=O)N1CCc2cc(OC)c(OC)cc2C1CC(=O)OC (stereo not given) -18.7%, COc1cc(C2c3c(-c4c(C)cc(C)cc4O)n[nH]c3C(=O)N2CCCOC(C)C)cc(OC)c1OC (stereo not given) -0.67%, CCN1CCN(c2cc(-c3ccc(F)cc3)c3c(n2)CCCCCC3)CC1 -6.54% [at 23.8 µM], CCc1ccccc1NC(=O)CN1C(=O)COc2ccc(S(=O)(=O)Nc3ccccc3)cc21 -11.4%, CCC1CN(S(=O)(=O)c2ccc3c(c2)NC(=O)CC(=O)N3)c2cc(Cl)ccc2O1 (stereo not given) -16.6%, Cc1cccc(N2CCN(C(=O)CCC(=O)NNc3nc4ccccc4c4nc(C)nn34)CC2C)c1 (stereo not given) -20.3%, Cn1c(=O)c2c(-c3ccccc3Cl)n(Cc3ccc(Cl)cc3)cc2n(C)c1=O -14.3%, COc1ccc(S(=O)(=O)n2nc(-c3ccco3)nc2NCc2ccc(OC)c(OC)c2)cc1 -8.29%, COc1ccc(N(C(=O)c2ccc(Cl)cc2)S(=O)(=O)c2ccc(C)cc2)cc1 -12.2%, Cc1ccc(N2CC(c3nnc(Cc4ccccc4Cl)o3)CC2=O)cc1 (stereo not given) -10.2%, CCOc1ccc(CNCc2c(C(=O)O)n(Cc3ccc(OC)cc3)c3ccccc23)cc1 -14.6%, COc1ccc(-c2nc3c(C#N)c[nH]n3c2NC2CCCC2)cc1 -3.32%, COc1ccccc1Cc1nc2ccccc2nc1SCC(=O)Nc1ccccc1C(F)(F)F -0.996%, CCCN(c1ccccc1F)S(=O)(=O)c1cc(-c2cc(C)no2)ccc1C -4.28%, CC(C)(C)C1CCc2c(sc(NC(=O)c3cc(-c4ccc(F)cc4)on3)c2C#N)C1 (stereo not given) 11.5%, CCC(C(=O)NCCc1ccc(OC)c(OC)c1)n1nc(C)c2sc3ccccc3c2c1=O (stereo not given) 2.27%, Cc1ccc(OCC(=O)OCc2cc(=O)n3nc(C4CC4)sc3n2)cc1C -1.99%, Cc1cc(C)cc(-n2ccn3cnnc3c2=O)c1 6.14%, CCCCCCSc1nc(N)c2c3c(sc2n1)CCCC3C (stereo not given) -12.5%, CSc1cccc(Nc2cc(C(=O)NC3CCCCC3)c3ccccc3n2)c1 9.51%, COc1ccc(C)cc1NC(=O)Cn1c(=O)oc2cc(S(=O)(=O)N3CCCCCC3)ccc21 -18.9%, CCc1ccc2occ(CC(=O)Nc3c(C(=O)c4ccc(F)cc4)oc4ccccc34)c2c1 -17.4%, CCCN(CCC)c1cc(C)nc2nc(-c3ccc(C(C)(C)C)cc3)nn12 3.94%, CN(C)c1ccc(-c2nc3ccc(Cl)cn3c2Nc2ccc3c(c2)OCCO3)cc1 0.0263%, Cc1cc(C)cc(N2C(=O)CSC23C(=O)N(CC(N)=O)c2ccccc23)c1 (stereo not given) -8.36%, Cn1nc(-c2ccccc2)c(-c2ccccc2)c(C(=O)Nc2ccccc2C(N)=O)c1=O -6.58%, CCOC(=O)c1ccc(NC(=O)c2cc(=O)c3ccc(C)c(C)c3o2)cc1 -11.6%, CC(=O)N1CCc2cc(Br)cc(S(=O)(=O)CCC(=O)N3CCN(c4cccc(C)c4C)CC3)c21 -10%, COCCN(Cc1ccc(C)c(Br)c1)S(=O)(=O)c1ccc2[nH]c(=O)ccc2c1 -10.3%, CCOCCCNC(=O)Cn1ncc2c([nH]c3ccc(C)cc32)c1=O -8.96%, Cc1ccc(C)c(N2CCN(C3(c4ccccc4)C(=O)c4ccccc4C3=O)CC2)c1 -13.7%, CCCN(CCC)CCNC(=O)c1cc2c(=O)oc3ccc(C)cc3c2s1 4.23%, CC(C)Cc1nn2c(=O)cc(COC(=O)c3cccc(NC(=O)c4ccccc4)c3)nc2s1 -14.8%, COc1ccc(NC(=O)c2cc(C3CC3)nc3c2c(C)nn3-c2ccccc2)c(OC)c1 -5.19%, Cc1c(C(=O)Nc2cccc(C(F)(F)F)c2)sc2nc3n(c(=O)c12)CCC3 -15.3%, Cc1cccc(Cn2cc3c(=O)n(CC(=O)Nc4cccc(C)c4C)nc-3c3cc(F)ccc32)c1 -3.86%, Cc1cccc(N2CCN(C(=O)c3cc4ccc5cccnc5c4[nH]3)CC2)c1C -13.6%, CCc1ccccc1NC(=O)N1CCN(Cc2nc3ccc(C)cc3o2)CC1 -9.6%, COCCn1c(C)cc(O)c(C(c2ccccc2)N2CCCCC2)c1=O (stereo not given) -10.8%, Cc1ccc(-n2ncc3c(Nc4ccc(Oc5ccccc5)cc4)ncnc32)cc1 -10.4%, Clc1ccccc1CNCCCSc1nnnn1-c1ccccc1 -13.4%, Cc1noc(C)c1S(=O)(=O)N(CC(=O)Nc1ccc(C(F)(F)F)cc1)c1ccc(C(C)C)cc1 -5.05%, CCOc1ccc(/C=C/c2nc(C#N)c(NCc3ccc(OC)cc3)o2)cc1 -5.35%, CCOCCCNC(=O)Cn1ncc2c([nH]c3ccccc32)c1=O -5.48%, O=C(CCCN1CCC(O)(c2ccc(Cl)cc2)CC1)c1ccc(F)cc1 -12%, O=C(NCc1ccc2c(c1)CCN2C(=O)c1ccc(F)cc1)c1c(F)cccc1F -13.6%, COc1cccc(-c2noc(-c3cc4ccccc4oc3=O)n2)c1OC 2.14%, CCN(CC)S(=O)(=O)c1ccc2c(c1)N(CC(=O)Nc1cccc(C)c1C)C(=O)C1CCCN21 (stereo not given) -13.2%, CCOC(=O)N1CCN(Cc2nc3cc(NC(=O)CC(C)C)ccc3n2C(C)C)CC1 -5.5%, COC(=O)c1ccc(NC(=O)C(=O)NCCc2csc3nc(-c4ccccc4F)nn23)cc1 -11.4%, CC1=C(C(=O)Nc2ccccc2)C(c2ccc(F)cc2)n2nc(SCc3cc(C)ccc3C)nc2N1 (stereo not given) -11.5%, CCOc1ccccc1NC(=O)CSc1cn(CC(=O)N2CCCCCC2)c2ccccc12 -0.77%, COc1cc(OC)c(NC(=O)C(CC(C)C)N2Cc3ccccc3C2=O)cc1Cl (stereo not given) -22.9%, Cc1ccc(NC(=O)CCN2C(=O)c3ccccc3Sc3ncccc32)cc1 -0.662%, Nc1nonc1-c1nc2ccccc2n1CC(=O)Nc1cccc(C(F)(F)F)c1 -2.22%, COc1ccc(C)cc1NC(=O)CSc1ncc2c(n1)-c1ccc(Cl)cc1N(Cc1ccccc1)S2(=O)=O 0.195%, CCCN1CCN(CCCNC(=O)c2cc3c(s2)-c2c(C)cccc2OC3)CC1 -0.683%, NC(=O)c1c(NC(=O)CS(=O)(=O)c2ccc(Cl)cc2)sc2c1CCCC2 -24.2%, O=C(c1cccc(Cl)c1)N(Cc1cccc(F)c1)C1CCS(=O)(=O)C1 (stereo not given) -8.79%, COc1ccc(NC(=O)C2CCCN(S(=O)(=O)c3ccc4[nH]c(=O)ccc4c3)C2)cc1Cl (stereo not given) -4.93%, COC(=O)c1cc2sccc2n1Cc1c(C)cc(C)cc1C -13.2%, COc1ccc(S(=O)(=O)N(CCc2ccccc2)CC(=O)Nc2cc(Cl)ccc2C)cc1 -10.1%, CCCSc1nnc(NC(=O)c2cc(=O)c3ccccc3o2)s1 -15.9%, CCOC(=O)N1CCc2c(sc3c2c(=O)n(CCc2ccccc2)c(=O)n3CC(=O)Nc2ccccc2C)C1 -10.8%, Cc1ccc(NC(=O)C2CCN(C(=O)c3sc4nc[nH]c(=O)c4c3C)CC2)cc1F 1.06%, Cc1ccc(-c2nn(CCC(=O)Nc3ccc(OC(F)(F)F)cc3)c(=O)c3ccccc23)cc1 1.11%, Cc1ccc(C)c(OCCCC(C)(C)C(=O)O)c1 -7.88%, CCOc1cccc(C(=O)N(Cc2ccc(C(C)C)cc2)C2CCS(=O)(=O)C2)c1 (stereo not given) -5.27%, COc1ccccc1C(=O)Nc1ccccc1OCc1cc(=O)n2cc(C)sc2n1 -9.04%, CCCCCn1c(CCCNC(=O)c2ccccc2)nc2ccccc21 -6.67%, O=C(Nc1ncc(Cc2ccc(F)cc2)s1)c1ccc2c(c1)CC(c1ccccc1)OC2=O (stereo not given) -8.04%, CCCC(=O)N1c2nc(-c3ccco3)nn2C2(CCCCC2)[C@@H]2CCCC[C@@H]21 2.84%, COc1cccc(NC(=O)Cn2c(=O)n(-c3ccc(C)cc3)c(=O)c3ccccc32)c1 -7.98%, CCN1C(=O)C(Cc2nc3ccccc3c(=O)n2-c2cccc(C)c2)c2ccccc21 (stereo not given) -16.8%, Cc1ccc(-c2noc(-c3ccccc3OCC(=O)Nc3ccccc3[N+](=O)[O-])n2)cc1 14.3%, Cc1ccccc1NC(=O)c1c(C)oc2ccc(O)c(CN(C)Cc3ccccc3)c12 -17.4%, CC(C)Oc1ccc(C(=O)NCCc2csc(-c3cccc(F)c3)n2)cc1 -6.65%
